Results from paper PMC9103030.
Results are given in words; binding and its absence hold for the method and conditions named. One block for each binder: values may come before it.

Assays:
Assay in all cases: two-hybrid; each of 13 full-length OsJAZs as BD (bait, left column) and AD (prey, top row) fusion; yeast Y2HGold; growth on SD/-Leu/-Trp/-His/-Ade; graded strong (++), weak (+), undetectable (-)
OsJAZ6 (rice) = target: T1, OsJAZ6 (rice) (UniProt Q84R94)
T1 sequence: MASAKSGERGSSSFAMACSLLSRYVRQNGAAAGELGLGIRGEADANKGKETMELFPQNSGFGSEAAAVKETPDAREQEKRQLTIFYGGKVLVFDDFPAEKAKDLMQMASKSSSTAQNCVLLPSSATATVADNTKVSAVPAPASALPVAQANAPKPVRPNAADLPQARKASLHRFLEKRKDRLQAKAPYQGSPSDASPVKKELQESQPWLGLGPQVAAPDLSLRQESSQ

OsJAZ8 (rice) = target: T2, OsJAZ8 (rice) (UniProt Q69P94)
T2 sequence: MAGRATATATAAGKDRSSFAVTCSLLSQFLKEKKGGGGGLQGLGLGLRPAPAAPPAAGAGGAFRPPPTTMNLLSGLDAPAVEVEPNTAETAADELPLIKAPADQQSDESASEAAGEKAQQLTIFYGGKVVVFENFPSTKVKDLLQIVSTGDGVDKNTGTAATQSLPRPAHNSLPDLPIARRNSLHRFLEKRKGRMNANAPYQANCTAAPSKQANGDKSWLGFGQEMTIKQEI

OsJAZ4 (rice) = target: T3, OsJAZ4 (rice) (UniProt Q6ES51)
T3 sequence: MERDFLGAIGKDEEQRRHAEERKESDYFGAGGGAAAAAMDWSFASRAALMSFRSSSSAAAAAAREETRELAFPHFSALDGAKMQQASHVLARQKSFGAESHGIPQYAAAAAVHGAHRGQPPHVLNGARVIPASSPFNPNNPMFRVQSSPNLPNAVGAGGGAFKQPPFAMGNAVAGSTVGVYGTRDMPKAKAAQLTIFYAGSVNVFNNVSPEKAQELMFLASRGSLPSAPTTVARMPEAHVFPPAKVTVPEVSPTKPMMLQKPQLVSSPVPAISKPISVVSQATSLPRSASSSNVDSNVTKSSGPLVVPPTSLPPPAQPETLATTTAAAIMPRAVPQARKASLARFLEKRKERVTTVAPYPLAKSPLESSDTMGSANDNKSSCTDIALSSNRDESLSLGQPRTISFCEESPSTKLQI

OsJAZ7 (rice) = target: T4, OsJAZ7 (rice) (UniProt Q8H395)
T4 sequence: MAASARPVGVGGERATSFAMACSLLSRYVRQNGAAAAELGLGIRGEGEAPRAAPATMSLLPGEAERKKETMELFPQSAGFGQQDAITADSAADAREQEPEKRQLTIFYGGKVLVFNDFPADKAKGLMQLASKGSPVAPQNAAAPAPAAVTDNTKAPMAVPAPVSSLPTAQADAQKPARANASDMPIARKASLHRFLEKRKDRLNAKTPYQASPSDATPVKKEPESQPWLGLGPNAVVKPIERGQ

OsJAZ9 (rice) = target: T5, OsJAZ9 (rice) (UniProt Q8GSI0)
T5 sequence: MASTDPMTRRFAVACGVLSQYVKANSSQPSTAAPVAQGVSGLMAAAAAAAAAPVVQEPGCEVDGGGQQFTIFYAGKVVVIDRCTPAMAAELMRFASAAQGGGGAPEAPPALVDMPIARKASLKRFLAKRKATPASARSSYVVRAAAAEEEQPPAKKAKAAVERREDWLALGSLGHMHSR

OsJAZ12 (rice) = target: T6, OsJAZ12 (rice) (UniProt Q7XEZ1)
T6 sequence: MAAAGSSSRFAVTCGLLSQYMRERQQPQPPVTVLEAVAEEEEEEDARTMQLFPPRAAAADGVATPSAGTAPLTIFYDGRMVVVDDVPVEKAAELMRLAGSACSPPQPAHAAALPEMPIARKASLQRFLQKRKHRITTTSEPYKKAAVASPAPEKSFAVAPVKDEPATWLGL

OsJAZ3 (rice) = target: T7, OsJAZ3 (rice) (UniProt Q6ZJU3)
T7 sequence: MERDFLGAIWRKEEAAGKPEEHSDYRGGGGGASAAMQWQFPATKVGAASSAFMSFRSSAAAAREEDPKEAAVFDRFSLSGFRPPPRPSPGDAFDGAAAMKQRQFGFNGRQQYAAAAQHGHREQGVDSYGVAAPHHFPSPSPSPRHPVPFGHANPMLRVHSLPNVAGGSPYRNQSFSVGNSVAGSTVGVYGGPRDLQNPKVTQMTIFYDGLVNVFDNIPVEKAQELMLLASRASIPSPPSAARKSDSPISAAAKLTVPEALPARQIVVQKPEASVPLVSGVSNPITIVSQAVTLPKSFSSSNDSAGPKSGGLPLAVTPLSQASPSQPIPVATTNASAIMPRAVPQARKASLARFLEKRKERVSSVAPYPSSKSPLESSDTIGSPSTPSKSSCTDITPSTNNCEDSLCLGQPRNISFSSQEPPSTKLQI

OsJAZ1 (rice) = target: T8, OsJAZ1 (rice) (UniProt Q7XPM8)
T8 sequence: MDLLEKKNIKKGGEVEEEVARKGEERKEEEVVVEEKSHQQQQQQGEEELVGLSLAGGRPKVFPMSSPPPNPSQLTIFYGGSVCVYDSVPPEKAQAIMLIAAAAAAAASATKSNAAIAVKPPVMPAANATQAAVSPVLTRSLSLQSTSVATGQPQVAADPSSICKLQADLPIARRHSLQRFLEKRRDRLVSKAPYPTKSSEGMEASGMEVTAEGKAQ

OsJAZ5 (rice) = target: T9, OsJAZ5 (rice) (UniProt Q7XV97)
T9 sequence: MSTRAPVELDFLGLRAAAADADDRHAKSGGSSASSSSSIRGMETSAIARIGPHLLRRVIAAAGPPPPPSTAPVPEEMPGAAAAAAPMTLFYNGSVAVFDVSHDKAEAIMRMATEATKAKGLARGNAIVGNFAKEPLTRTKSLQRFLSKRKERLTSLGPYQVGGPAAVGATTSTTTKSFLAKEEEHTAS

binding (OsJAZ6 (rice)): no binding | binding (OsJAZ8 (rice)): no binding | binding (OsJAZ4 (rice)): no binding | binding (OsJAZ7 (rice)): no binding | binding (OsJAZ9 (rice)): no binding | binding (OsJAZ12 (rice)): no binding | binding (OsJAZ3 (rice)): no binding | binding (OsJAZ1 (rice)): no binding | binding (OsJAZ5 (rice)): no binding
B1: OsJAZ3 (protein, UniProt Q6ZJU3 1-427)
chain: T7 sequence

binding (OsJAZ6 (rice)): no binding | binding (OsJAZ8 (rice)): no binding | binding (OsJAZ4 (rice)): no binding | binding (OsJAZ7 (rice)): no binding | binding (OsJAZ3 (rice)): no binding | binding (OsJAZ1 (rice)): no binding | binding (OsJAZ5 (rice)): no binding
B2: OsJAZ4 (protein, UniProt Q6ES51 1-416)
chain: T3 sequence
